# Laboratory results published in the supplement of paper PMC8728848.
# The list shows a part of the results.
# B1: Calsepa (Calystegia sepium), P93114 (protein)
# chain: MAVPMDTISGPWGNNGGNFWSFRPVNKINQIVISYGGGGNNPIALTFSSTKADGSKDTITVGGGGPDSITGTEMVNIGTDEYLTGISGTFGIYLDNNVLRSITFTTNLKAHGPYGQKVGTPFSSANVVGNEIVGFLGRSGYYVDAIGTYNRHK
# Legend:
# Experiment in all cases: glycan array binding signal (z-score within array); higher = stronger binding
# Details in all cases: glycan notation: IUPAC condensed, linker removed
# [1] = molecular target: Fuc(a1-2)Gal6S(b1-3)GlcNAc6S
# Procedure, shortened: (§1)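 Columns mapping to the same glycan were averaged after glycan names were converted to IUPAC-condensed notation. The data come from 3228 arrays in the Consortium for Functional Glycomics database, limited to those with an available protein sequence. Binding is reported as a within-array Z-score averaged across arrays of one protein sequence and across linkers.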
# Fuc(a1-2)Gal6S(b1-4)Glc = molecular target: Fuc(a1-2)Gal6S(b1-4)Glc
# Procedure, shortened: as §1
# [2] = molecular target: Fuc(a1-2)Gal6S(b1-4)Glc6S
# Procedure, shortened: as §1
# [3] = molecular target: Fuc(a1-2)Gal6S(b1-4)GlcNAc
# Procedure, shortened: as §1
# Fuc(a1-2)[Gal(a1-3)]Gal = molecular target: Fuc(a1-2)[Gal(a1-3)]Gal
# Procedure, shortened: as §1
# [4] = molecular target: Fuc(a1-2)[Gal(a1-3)]Gal(b1-3)GalNAc
# Procedure, shortened: as §1
# [5] = molecular target: Fuc(a1-2)[Gal(a1-3)]Gal(b1-3)GlcNAc
# Procedure, shortened: as §1
# [6] = molecular target: Fuc(a1-2)[Gal(a1-3)]Gal(b1-3)GlcNAc(b1-2)Man(a1-3)[Fuc(a1-2)[Gal(a1-3)]Gal(b1-3)GlcNAc(b1-2)Man(a1-6)]Man(b1-4)GlcNAc(b1-4)GlcNAc
# Procedure, shortened: as §1
# [7] = molecular target: Fuc(a1-2)[Gal(a1-3)]Gal(b1-3)GlcNAc(b1-2)Man(a1-3)[Fuc(a1-2)[Gal(a1-3)]Gal(b1-3)GlcNAc(b1-2)Man(a1-6)]Man(b1-4)GlcNAc(b1-4)[Fuc(a1-6)]GlcNAc
# Procedure, shortened: as §1
# [8] = molecular target: Fuc(a1-2)[Gal(a1-3)]Gal(b1-3)GlcNAc(b1-3)GalNAc
# Procedure, shortened: as §1
# [9] = molecular target: Fuc(a1-2)[Gal(a1-3)]Gal(b1-4)Glc
# Procedure, shortened: as §1
# [10] = molecular target: Fuc(a1-2)[Gal(a1-3)]Gal(b1-4)GlcNAc
# Procedure, shortened: as §1
# [11] = molecular target: Fuc(a1-2)[Gal(a1-3)]Gal(b1-4)GlcNAc(b1-2)Man(a1-3)[Fuc(a1-2)[Gal(a1-3)]Gal(b1-4)GlcNAc(b1-2)Man(a1-6)]Man(b1-4)GlcNAc(b1-4)GlcNAc
# Procedure, shortened: as §1
# [12] = molecular target: Fuc(a1-2)[Gal(a1-3)]Gal(b1-4)GlcNAc(b1-2)Man(a1-3)[Fuc(a1-2)[Gal(a1-3)]Gal(b1-4)GlcNAc(b1-2)Man(a1-6)]Man(b1-4)GlcNAc(b1-4)[Fuc(a1-6)]GlcNAc
# Procedure, shortened: as §1
# [13] = molecular target: Fuc(a1-2)[Gal(a1-3)]Gal(b1-4)GlcNAc(b1-3)GalNAc
# Procedure, shortened: as §1
# [14] = molecular target: Fuc(a1-2)[Gal(a1-3)]Gal(b1-4)GlcNAc(b1-6)GalNAc
# Procedure, shortened: as §1
# [15] = molecular target: Fuc(a1-2)[Gal(a1-3)]Gal(b1-4)[Fuc(a1-3)]Glc
# Procedure, shortened: as §1
# [16] = molecular target: Fuc(a1-2)[Gal(a1-3)]Gal(b1-4)[Fuc(a1-3)]GlcNAc
# Procedure, shortened: as §1
# [17] = molecular target: Fuc(a1-2)[Gal(a1-3)]Gal(b1-4)[Fuc(a1-3)]GlcNAc(b1-3)GalNAc
# Procedure, shortened: as §1
# [18] = molecular target: Fuc(a1-2)[Gal(a1-4)]Gal(b1-4)GlcNAc
# Procedure, shortened: as §1
# [19] = molecular target: Fuc(a1-2)[GalNAc(a1-3)]Gal
# Procedure, shortened: as §1
# [20] = molecular target: Fuc(a1-2)[GalNAc(a1-3)]Gal(b1-3)GalNAc(a1-3)[Fuc(a1-2)]Gal(b1-4)GlcNAc
# Procedure, shortened: as §1
# [21] = molecular target: Fuc(a1-2)[GalNAc(a1-3)]Gal(b1-3)GlcNAc
# Procedure, shortened: as §1
# [22] = molecular target: Fuc(a1-2)[GalNAc(a1-3)]Gal(b1-3)GlcNAc(b1-2)Man(a1-3)[Fuc(a1-2)[GalNAc(a1-3)]Gal(b1-3)GlcNAc(b1-2)Man(a1-6)]Man(b1-4)GlcNAc(b1-4)GlcNAc
# Procedure, shortened: as §1
# [23] = molecular target: Fuc(a1-2)[GalNAc(a1-3)]Gal(b1-3)GlcNAc(b1-2)Man(a1-3)[Fuc(a1-2)[GalNAc(a1-3)]Gal(b1-3)GlcNAc(b1-2)Man(a1-6)]Man(b1-4)GlcNAc(b1-4)[Fuc(a1-6)]GlcNAc
# Procedure, shortened: as §1
# [24] = molecular target: Fuc(a1-2)[GalNAc(a1-3)]Gal(b1-3)GlcNAc(b1-3)GalNAc
# Procedure, shortened: as §1
# [25] = molecular target: Fuc(a1-2)[GalNAc(a1-3)]Gal(b1-3)GlcNAc(b1-6)GalNAc
# Procedure, shortened: as §1
# [26] = molecular target: Fuc(a1-2)[GalNAc(a1-3)]Gal(b1-4)Glc
# Procedure, shortened: as §1
# [27] = molecular target: Fuc(a1-2)[GalNAc(a1-3)]Gal(b1-4)GlcNAc
# Procedure, shortened: as §1
# [28] = molecular target: Fuc(a1-2)[GalNAc(a1-3)]Gal(b1-4)GlcNAc(b1-2)Man(a1-3)[Fuc(a1-2)[GalNAc(a1-3)]Gal(b1-4)GlcNAc(b1-2)Man(a1-6)]Man(b1-4)GlcNAc(b1-4)GlcNAc
# Procedure, shortened: as §1
# [29] = molecular target: Fuc(a1-2)[GalNAc(a1-3)]Gal(b1-4)GlcNAc(b1-2)Man(a1-3)[Fuc(a1-2)[GalNAc(a1-3)]Gal(b1-4)GlcNAc(b1-2)Man(a1-6)]Man(b1-4)GlcNAc(b1-4)[Fuc(a1-6)]GlcNAc
# Procedure, shortened: as §1
# [30] = molecular target: Fuc(a1-2)[GalNAc(a1-3)]Gal(b1-4)GlcNAc(b1-2)Man(a1-3)[GalNAc(a1-3)[Fuc(a1-2)]Gal(b1-4)GlcNAc(b1-2)Man(a1-6)]Man(b1-4)GlcNAc(b1-4)GlcNAc
# Procedure, shortened: as §1
# [31] = molecular target: Fuc(a1-2)[GalNAc(a1-3)]Gal(b1-4)GlcNAc(b1-3)Gal(b1-4)GlcNAc
# Procedure, shortened: as §1
# [32] = molecular target: Fuc(a1-2)[GalNAc(a1-3)]Gal(b1-4)GlcNAc(b1-3)Gal(b1-4)GlcNAc(b1-3)Gal(b1-4)GlcNAc
# Procedure, shortened: as §1
# [33] = molecular target: Fuc(a1-2)[GalNAc(a1-3)]Gal(b1-4)GlcNAc(b1-3)GalNAc
# Procedure, shortened: as §1
# [34] = molecular target: Fuc(a1-2)[GalNAc(a1-3)]Gal(b1-4)[Fuc(a1-3)]GlcNAc
# Procedure, shortened: as §1
# [35] = molecular target: Fuc(a1-2)[GalNAc(a1-3)]Gal(b1-4)[Fuc(a1-3)]GlcNAc(b1-3)GalNAc
# Procedure, shortened: as §1
# [36] = molecular target: Fuc(a1-2)[GalNAc(a1-4)]Gal(b1-4)GlcNAc
# Procedure, shortened: as §1
# [37] = molecular target: Fuc(a1-2)[GalNAc(b1-3)]Gal
# Procedure, shortened: as §1
# Fuc(a1-3)GlcNAc = molecular target: Fuc(a1-3)GlcNAc
# Procedure, shortened: as §1
# [38] = molecular target: Fuc(a1-3)[Gal(b1-4)]Glc6S
# Procedure, shortened: as §1
# [39] = molecular target: Fuc(a1-3)[Gal(b1-4)]GlcNAc
# Procedure, shortened: as §1
# [40] = molecular target: Fuc(a1-3)[Gal(b1-4)]GlcNAc(b1-2)Man
# Procedure, shortened: as §1
# [41] = molecular target: Fuc(a1-3)[Gal(b1-4)]GlcNAc(b1-2)Man(a1-3)[Fuc(a1-3)[Gal(b1-4)]GlcNAc(b1-2)Man(a1-6)]Man(b1-4)GlcNAc(b1-4)GlcNAc
# Procedure, shortened: as §1
# [42] = molecular target: Fuc(a1-3)[Gal(b1-4)]GlcNAc(b1-2)Man(a1-3)[Fuc(a1-3)[Gal(b1-4)]GlcNAc(b1-2)Man(a1-6)]Man(b1-4)GlcNAc(b1-4)[Fuc(a1-6)]GlcNAc
# Procedure, shortened: as §1
binder,measurement,setting,value
B1,glycan array binding signal (z-score),[1],-0.26
same,glycan array binding signal (z-score),Fuc(a1-2)Gal6S(b1-4)Glc,-0.253
same,glycan array binding signal (z-score),[2],-0.244
same,glycan array binding signal (z-score),[3],-0.241
same,glycan array binding signal (z-score),Fuc(a1-2)[Gal(a1-3)]Gal,-0.247
same,glycan array binding signal (z-score),[4],-0.272
same,glycan array binding signal (z-score),[5],-0.259
same,glycan array binding signal (z-score),[6],-0.227
same,glycan array binding signal (z-score),[7],-0.269
same,glycan array binding signal (z-score),[8],-0.27
same,glycan array binding signal (z-score),[9],-0.256
same,glycan array binding signal (z-score),[10],-0.249
same,glycan array binding signal (z-score),[11],0.713
same,glycan array binding signal (z-score),[12],-0.244
same,glycan array binding signal (z-score),[13],-0.269
same,glycan array binding signal (z-score),[14],-0.273
same,glycan array binding signal (z-score),[15],-0.271
same,glycan array binding signal (z-score),[16],-0.258
same,glycan array binding signal (z-score),[17],-0.274
same,glycan array binding signal (z-score),[18],-0.251
same,glycan array binding signal (z-score),[19],-0.245
same,glycan array binding signal (z-score),[20],-0.271
same,glycan array binding signal (z-score),[21],-0.225
same,glycan array binding signal (z-score),[22],-0.222
same,glycan array binding signal (z-score),[23],-0.272
same,glycan array binding signal (z-score),[24],-0.27
same,glycan array binding signal (z-score),[25],-0.269
same,glycan array binding signal (z-score),[26],-0.252
same,glycan array binding signal (z-score),[27],-0.243
same,glycan array binding signal (z-score),[28],0.343
same,glycan array binding signal (z-score),[29],-0.263
same,glycan array binding signal (z-score),[30],-0.053
same,glycan array binding signal (z-score),[31],-0.252
same,glycan array binding signal (z-score),[32],-0.246
same,glycan array binding signal (z-score),[33],-0.272
same,glycan array binding signal (z-score),[34],-0.246
same,glycan array binding signal (z-score),[35],-0.267
same,glycan array binding signal (z-score),[36],-0.247
same,glycan array binding signal (z-score),[37],-0.247
same,glycan array binding signal (z-score),Fuc(a1-3)GlcNAc,-0.24
same,glycan array binding signal (z-score),[38],-0.244
same,glycan array binding signal (z-score),[39],-0.246
same,glycan array binding signal (z-score),[40],-0.262
same,glycan array binding signal (z-score),[41],-0.082
same,glycan array binding signal (z-score),[42],-0.272
